# Laboratory results taken from the supplement of paper PMC8728848.
# This is one part of the list.
# B1: Epa1-NP-mutant-E227G (Candida glabrata), Q6VBJ0 (protein)
# chain: MILNPALFLNKCVCIYTTLILLLLTNGGYATSSNDISLASKDPTTFPLGCSPDITTPKKGLSMELYSYDFRKKGSYPCWDAAYLDPNYPRTGYKSHRLLAKVDGVTGNINFYYHATKGCTPQLGHLPASYNYPKPLTMTNFTMLLYGYFRPKVTGFHTFTISADDLLFVNFGAGNAFDCCRRDSSADHFGNYQAYAIWGSKTAKDELTVHLDAGVYYPIRLFYNNRGYDGALSFTFKTESNENTVSDFSEYFFSLDDTEEGCPGLISYDSSCASVKTSKIIGIDYHTETPNENLVPITKTIYHLGIPCTGTTTTPLCGSGFYDPLANKCVTINTSSTSSVTKTTSHTTSKEVSFHSSISSQKTLIPKSIPSPYGPIKSQSIPTEMETSSEISSSEYAFSDVISTPSHSPYTKKHSSLNSSSYTSTVIHSLTSYSISQGIFSTSLSEQNITSKSSTDKFSTATSMSNNITQSSIIISQFSTNNENYTTTSMHTSSDKISTETLNNSISTTTSILFSNSSTILKNNTTIISSDKDTHYHPVNPTIVCSTNKTEIICASITQPSISNSNNHWSSSVLKFNSTTVRSTLPSSAGSNETSINVPFSSSTESNTSTSSTSTSNSKMVRSTLPSSAGSNETSISVPFSSSTESNTSTSSTSTSNSKMVRSTLPSSAGSNETSINVPFSSSTESNTSTSSTSTSNSKTVRSTPFSSAGIIMTSLSQRNNKSASSYASSNSKCYNTADSCRKVHSTPSYLLTSSYTSEGVDYDCSLVSTKLKINDTNCVNNKHTTKSCLKTSVTTTIPTLEIKTARKSSSNTIGLHSYPTSSPNKSISSAPIIGYISSFKTIKTASPSYQTSDLTTITTITSLNNPGSTAVENTHESNDKSRKTSSNDISSKHSVIKETKDAVESSNKSHQTNTLKCSSIIIASSSHNSYESLGGTTLTLTLSKVYSPQNNDTLPFLEISEVNPSRTVLPESSKMMQYLTSTEERNKTARNTIATNIVSISTFHFEGEGNAIRMGYTQLLLMLIGIIVMNIGT
# How the values were obtained:
# Assay in all cases: glycan array binding signal (z-score within array); higher = stronger binding
# Settings in all cases: glycan notation: IUPAC condensed, linker removed; mutation: E227G
# [1] = molecular target: Gal3S(b1-3)[Fuc(a1-4)]GlcNAc
# Outline: (§1)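 Arrays were curated from the Consortium for Functional Glycomics database, 3228 in total, and kept only where the protein sequence was available. Binding is expressed as a within-array Z-score. This score was averaged across arrays of the same protein sequence at different concentrations or buffers and across linkers, and negative values can be read as non-binding.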
# [2] = molecular target: Gal3S(b1-4)Glc
# Outline: as §1
# [3] = molecular target: Gal3S(b1-4)Glc6S
# Outline: as §1
# [4] = molecular target: Gal3S(b1-4)GlcNAc
# Outline: as §1
# [5] = molecular target: Gal3S(b1-4)[Fuc(a1-3)]Glc6S
# Outline: as §1
# [6] = molecular target: Gal3S(b1-4)[Fuc(a1-3)]GlcNAc
# Outline: as §1
# [7] = molecular target: Gal3S(b1-4)[Fuc(a1-3)]GlcNAc6S
# Outline: as §1
# [8] = molecular target: Gal3S4S(b1-4)GlcNAc
# Outline: as §1
# [9] = molecular target: Gal3S6S(b1-4)GlcNAc
# Outline: as §1
# [10] = molecular target: Gal3S6S(b1-4)GlcNAc6S
# Outline: as §1
# [11] = molecular target: Gal4S(b1-4)GlcNAc
# Outline: as §1
# [12] = molecular target: Gal4S6S(b1-4)GlcNAc
# Outline: as §1
# [13] = molecular target: Gal6P(b1-4)GlcNAc
# Outline: as §1
# [14] = molecular target: Gal6S(b1-3)GlcNAc
# Outline: as §1
# [15] = molecular target: Gal6S(b1-3)GlcNAc6S
# Outline: as §1
# [16] = molecular target: Gal6S(b1-4)Glc
# Outline: as §1
# [17] = molecular target: Gal6S(b1-4)Glc6S
# Outline: as §1
# [18] = molecular target: Gal6S(b1-4)GlcNAc
# Outline: as §1
# [19] = molecular target: Gal6S(b1-4)GlcNAc6S
# Outline: as §1
# [20] = molecular target: GalNAc(a1-3)Gal
# Outline: as §1
# [21] = molecular target: GalNAc(a1-3)GalNAc
# Outline: as §1
# [22] = molecular target: GalNAc(a1-3)GalNAc(b1-3)Gal(a1-4)Gal(b1-4)Glc
# Outline: as §1
# [23] = molecular target: GalNAc(a1-3)GalNAc(b1-3)Gal(a1-4)Gal(b1-4)GlcNAc
# Outline: as §1
# [24] = molecular target: GalNAc(b1-3)Gal
# Outline: as §1
# [25] = molecular target: GalNAc(b1-3)Gal(a1-4)Gal(b1-4)GlcNAc
# Outline: as §1
# [26] = molecular target: GalNAc(b1-3)Gal(a1-4)Gal(b1-4)GlcNAc(b1-3)Gal(b1-4)Glc
# Outline: as §1
# [27] = molecular target: GalNAc(b1-3)Gal(a1-6)Gal(b1-4)Glc
# Outline: as §1
# [28] = molecular target: GalNAc(b1-3)GalNAc
# Outline: as §1
# [29] = molecular target: GalNAc(b1-3)GlcNAc
# Outline: as §1
# [30] = molecular target: GalNAc(b1-4)Gal(b1-4)Glc
# Outline: as §1
binder,measurement,setting,value
B1,glycan array binding signal (z-score),[1],0
same,glycan array binding signal (z-score),[2],-0.178
same,glycan array binding signal (z-score),[3],-0.083
same,glycan array binding signal (z-score),[4],-0.125
same,glycan array binding signal (z-score),[5],0.018
same,glycan array binding signal (z-score),[6],-0.205
same,glycan array binding signal (z-score),[7],-0.019
same,glycan array binding signal (z-score),[8],-0.134
same,glycan array binding signal (z-score),[9],-0.088
same,glycan array binding signal (z-score),[10],0.516
same,glycan array binding signal (z-score),[11],-0.27
same,glycan array binding signal (z-score),[12],-0.177
same,glycan array binding signal (z-score),[13],-0.136
same,glycan array binding signal (z-score),[14],0.07
same,glycan array binding signal (z-score),[15],3.58
same,glycan array binding signal (z-score),[16],0.019
same,glycan array binding signal (z-score),[17],13
same,glycan array binding signal (z-score),[18],-0.157
same,glycan array binding signal (z-score),[19],12.7
same,glycan array binding signal (z-score),[20],-0.19
same,glycan array binding signal (z-score),[21],-0.146
same,glycan array binding signal (z-score),[22],-0.316
same,glycan array binding signal (z-score),[23],-0.08
same,glycan array binding signal (z-score),[24],-0.165
same,glycan array binding signal (z-score),[25],-0.107
same,glycan array binding signal (z-score),[26],-0.14
same,glycan array binding signal (z-score),[27],-0.169
same,glycan array binding signal (z-score),[28],-0.259
same,glycan array binding signal (z-score),[29],-0.142
same,glycan array binding signal (z-score),[30],-0.258
